Experimental findings from article PMC4336329 (PLoS ONE, 2015) are described below.

SMILES strings stand for the structures. Among all 310,000 compounds or so, about 14,000 (4.5%) showed an effect of 50% or more. Effects have a minus sign here. Some of the results follow.
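Also: peak tail current of the secondary pulse compared with the same well before compound.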

The target in the test is human ether-à-go-go-related gene (hERG) potassium channel (human, UniProt Q12809). Kind of test: primary screen, population patch clamp on CHO cells stably expressing hERG.
Chain of human ether-à-go-go-related gene (hERG) potassium channel (Q12809 whole entry, looked up): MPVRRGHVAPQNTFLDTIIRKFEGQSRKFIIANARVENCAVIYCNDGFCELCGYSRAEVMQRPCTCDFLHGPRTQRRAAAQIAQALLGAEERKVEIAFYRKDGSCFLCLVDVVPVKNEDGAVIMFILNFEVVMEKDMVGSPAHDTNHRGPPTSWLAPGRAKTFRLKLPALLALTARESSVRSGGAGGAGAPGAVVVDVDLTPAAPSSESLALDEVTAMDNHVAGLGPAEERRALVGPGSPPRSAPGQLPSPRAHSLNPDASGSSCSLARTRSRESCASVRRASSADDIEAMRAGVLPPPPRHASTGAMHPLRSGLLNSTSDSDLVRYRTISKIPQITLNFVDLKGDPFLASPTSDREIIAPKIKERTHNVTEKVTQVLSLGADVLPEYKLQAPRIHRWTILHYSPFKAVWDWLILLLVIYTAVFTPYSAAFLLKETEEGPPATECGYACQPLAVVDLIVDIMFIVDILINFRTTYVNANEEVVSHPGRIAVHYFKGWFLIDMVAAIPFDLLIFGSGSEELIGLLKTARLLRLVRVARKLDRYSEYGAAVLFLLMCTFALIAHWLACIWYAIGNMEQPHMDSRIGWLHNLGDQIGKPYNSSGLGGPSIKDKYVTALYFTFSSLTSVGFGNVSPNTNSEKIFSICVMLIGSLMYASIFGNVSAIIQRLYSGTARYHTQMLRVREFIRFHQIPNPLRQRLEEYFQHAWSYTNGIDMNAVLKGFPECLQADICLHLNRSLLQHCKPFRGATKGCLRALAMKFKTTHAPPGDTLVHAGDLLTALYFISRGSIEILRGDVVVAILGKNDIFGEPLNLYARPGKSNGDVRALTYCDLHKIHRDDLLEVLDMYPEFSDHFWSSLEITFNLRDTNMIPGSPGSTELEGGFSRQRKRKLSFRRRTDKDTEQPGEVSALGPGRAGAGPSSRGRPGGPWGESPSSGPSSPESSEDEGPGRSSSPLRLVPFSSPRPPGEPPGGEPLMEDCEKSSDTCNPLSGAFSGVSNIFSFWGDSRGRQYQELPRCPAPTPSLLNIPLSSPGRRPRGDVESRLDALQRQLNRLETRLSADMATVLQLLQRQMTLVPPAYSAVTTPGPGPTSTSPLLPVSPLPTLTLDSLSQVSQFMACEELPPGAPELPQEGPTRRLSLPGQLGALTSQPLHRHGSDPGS
As to `Cc1ccc(C(=O)N2NC(c3ccc(F)cc3)C3C(=O)N(c4ccc(C)cc4)C(=O)C32)cc1` (stereo not drawn), the “hERG current change (%, negative = inhibition) at 10uM” value is -0.588%.
The value for `Cc1ccc(SCCC(=O)NC(C)C)cc1` was 20.4%.
Turning to `CC(CN(C)Cc1ccccc1)OC(=O)c1ccc2c(c1)OCCO2.Cl` (stereo not drawn), the “hERG current change (%, negative = inhibition) at 10uM” value is given as 5.15%.
The value for `Cc1nn(C)c(C(=O)Nc2ccc(Cl)c([N+](=O)[O-])c2)c1Cl` was 19.2%.
The value for `O=C(c1cccs1)N1CCCN(c2ncnc3scc(-c4ccccc4)c23)CC1` was -60.7%; that for `CCN(CC)c1ccc(/C=N/NC(=S)NCc2ccco2)cc1` was 10.9%.
The result for `COc1ccc(CCNC(=O)c2ccc(CNc3c(N4CCOCC4)c(=O)c3=O)cc2)cc1OC` reads 4.75%; that for `COC(=O)C1=NN(c2ccccc2OC)C2C(=O)N(c3ccccc3OC)C(=O)C12` (stereo not drawn), 9.21%.
With `COc1ccc(-c2nnc(NC(=O)C3CC3)o2)cc1`, the “hERG current change (%, negative = inhibition) at 10uM” value is given as -24%.
As for `Cc1ccc(NC(=O)CCN2C(=O)c3ccccc3C2=O)cc1C`, the “hERG current change (%, negative = inhibition) at 10uM” value is listed as 4.19%.
The result for `O=C(CSc1nnc2ccc(-c3ccncc3)nn12)N1CCCCC1` reads -1.5%; that for `COc1ccccc1N1CCN(C2CCCN(C(=O)CCc3cnn(C)c3)C2)CC1` (stereo not drawn), -2.81%.
The result for `COc1ccc(-c2ccc3c(N)c(C(=O)NC(C)C)sc3n2)cc1OC` reads -9.01%; that for `CCOC(=O)N1CCC(N2Cc3cccc(C(=O)NCc4ccc(OC)cc4)c3C2=O)CC1`, -40%.
The value for `CCOCCn1c(-c2ccc(OC)cc2)nc2ccccc21` was -33.2%.
`Cl.OCCNCc1cc(Br)ccc1OCc1ccccc1`: the “hERG current change (%, negative = inhibition) at 10uM” value is reported as -55.7%.
The value for `CC(C)CCSc1nnc(Cn2c(=O)sc3ccccc32)n1C` was -9.01%; that for `O=C(CSc1nc(O)cc(=O)n1-c1ccccc1)c1ccc(Br)cc1` was 14.3%.
The result for `Cc1ccc(NC(=O)NCc2nc3ccccc3n2C)cc1` reads 7.06%.
As to `CCC(C)[C@H](NC(=O)NCc1ccccc1Cl)C(=O)OC` (stereo partly drawn), the “hERG current change (%, negative = inhibition) at 10uM” value was 12%.
The result for `CCN(CC)CCNC(=O)CSc1c2c(nc3cc(Cl)ccc13)CCCC2` reads -64.1%; that for `CCOC(=O)c1cc2c(ccn2C)n1CC(=O)Nc1ccc(F)cc1`, 6.01%; that for `Cc1nn(Cc2ccc(Cl)cc2Cl)c(Cl)c1C(=O)O`, 2.57%.
The value for `COCCNC(=S)N1CCC(c2nc(-c3ccc(N(C)C)cc3)no2)CC1` was -12.9%; that for `Cc1cn2c(-c3ccncc3)nnc2s1` was 7.96%; that for `c1ccc(COc2cncc(-c3cccnc3)c2)cc1` was -17.8%.
The value for `CC(=O)Nc1ccc(S(=O)(=O)N2CCC(C(=O)NCCC(=O)NCc3ccncc3)CC2)cc1` was 9.11%; that for `CC(=O)Nc1ccc(S[C@@H](CCN2CC[C@H](O)CCC2=O)c2ccccc2)cc1` was 19.6%.
In the case of `COc1ccc(NC(=O)CSc2nnc(CCC(=O)Nc3ccc(C)c(Cl)c3)n2C)cc1`, the “hERG current change (%, negative = inhibition) at 10uM” value is given as -16.4%.
The value for `CC(=O)c1c(C)[nH]c(C(=O)OCC(=O)Nc2cc(C(F)(F)F)ccc2N2CCOCC2)c1C` was -56.1%.
On to `O=C(NCCCN1CCOCC1)c1cccc(S(=O)(=O)Nc2ccc(F)cc2)c1`, for which the “hERG current change (%, negative = inhibition) at 10uM” value was -23.3%.
On to `NS(=O)(=O)c1cccc(NC(=O)COC(=O)CCN2C(=O)c3ccccc3C2=O)c1`, for which the “hERG current change (%, negative = inhibition) at 10uM” value is given as 6.78%.
The result for `O=[N+]([O-])c1ccc(-c2ccc(/C=N/c3c(-c4ccco4)nc4ccccn34)o2)cc1` reads 8.33%.
The value for `Cc1cccnc1Nc1nc(-c2ccccn2)cs1` was 4.03%; that for `Cc1c(N(C)C(=O)COc2ccc3ccccc3c2)c(=O)n(-c2ccccc2)n1C` was 6.46%; that for `Cc1ccc(Cn2c(C(C)Nc3nc(-c4ccc(Cl)cc4)cs3)nc3cc(C(=O)NCCCO)ccc32)cc1` (stereo not drawn) was 17.6%.
The result for `CC1CCCC(C)N1C(=O)CSc1nc2ccccc2c(=O)[nH]1` (stereo not drawn) reads 5%; that for `Cc1ccc2c(C)c(C(=O)N3CCC(N4CCC(C(=O)NC5CC5)CC4)CC3)oc2c1`, -59.1%; that for `O=C(O)CC(NC(=O)c1ccc2c(c1)OCO2)c1cccc([N+](=O)[O-])c1` (stereo not drawn), 18.2%.
Regarding `Cc1ccc(N2CC(C(=O)Nc3ccc(S(=O)(=O)N4CCOCC4)cc3)CC2=O)cc1` (stereo not drawn), the “hERG current change (%, negative = inhibition) at 10uM” value came to 1.73%.
With `C=CCOc1ccc(C2/C(=C(\O)c3c(C)[nH]c(C(=O)OC)c3C)C(=O)C(=O)N2CCN(C)C)cc1` (stereo not drawn), the “hERG current change (%, negative = inhibition) at 10uM” value was found to be 17.3%.
The result for `CCOC(=O)c1nn(-c2ccccc2F)c(-c2ccccc2)c1C(=O)c1ccccc1` reads 7.34%; that for `Cc1nnc(NC(=O)CC(CN(C)S(=O)(=O)c2ccccc2)c2ccccc2)s1` (stereo not drawn), -18.7%.
The value for `COC(=O)CN(c1cc(OC)ccc1OC)S(=O)(=O)c1ccc(OC)c(OC)c1` was -12%; that for `CCOCC(=O)Nc1cc(C(=O)NCCc2ccccc2)ccc1Cl` was -16.9%; that for `CN(Cc1ccccn1)Cc1nc(COc2ccccc2)no1` was -2.85%.
The value for `Cc1cc(N2C(=O)C(O)=C(C(=O)c3cccs3)C2c2ccc(F)cc2)no1` (stereo not drawn) was 15.9%; that for `O=C(CNC(=O)c1cccc(-n2cnnn2)c1)Nc1ccc(F)c(F)c1` was -0.737%.
On to `Cn1ccnc1C1CCCCN1C(=O)c1cc(COc2ccc(F)cc2F)on1` (stereo not drawn), for which the “hERG current change (%, negative = inhibition) at 10uM” value is on record as -20.3%.
The result for `O=C(CCNC(=O)N1C[C@H]2C[C@@H](C1)c1cccc(=O)n1C2)Nc1cccc(Cl)c1` reads 7.05%; that for `CS(=O)(=O)NCCC1=CCCCC1`, 10.8%; that for `CCc1cc(C(=O)Nc2nnc(C3CC3)s2)sc1C`, -0.944%.
As for `CS/C(=N\S(=O)(=O)c1cccs1)Nc1ccc(F)c(Cl)c1`, the “hERG current change (%, negative = inhibition) at 10uM” value is -8.86%.
The value for `O=C(CSc1ccc(-c2ccncc2)nn1)N1CCN(c2ccccc2)CC1` was -6.6%; that for `O=C(c1cc(Br)ccc1Cl)N1CCN(c2ccccn2)CC1` was -7.85%.
The result for `CN(C)c1ccc(S(=O)(=O)NCC(=O)N2CCN(c3ccccc3)CC2)cc1[N+](=O)[O-]` reads -20.4%; that for `Cc1ccc(N2CCN(CC(O)COc3ccccc3)CC2)cc1` (stereo not drawn), -50.9%; that for `O=c1c(C(c2c(O)nc3n(c2=O)CCS3)c2cccc3ccccc23)c(O)nc2n1CCS2`, -2.13%.
The result for `Cc1ccc(CNC(=O)/C=C/c2ccccc2Cl)cc1` reads 12.5%.
As to `Cc1c(C)c2cc(Cl)c(OCc3nn[nH]n3)cc2oc1=O`, the “hERG current change (%, negative = inhibition) at 10uM” value was determined as 7.52%.
With `COc1ccccc1NC(=O)NCCc1c[nH]c2ccccc12`, the “hERG current change (%, negative = inhibition) at 10uM” value came to 8.87%.
The value for `c1ccc(Sc2ncnc3c2oc2ccccc23)nc1` was 6.59%; that for `CC1CCC(NC(=O)CCCCn2c(=O)[nH]c3ccsc3c2=O)CC1` (stereo not drawn) was 21.8%; that for `CCOC(=O)c1c(NC(=O)COc2cccc3c2CCN(C)C3=O)sc2c1CCC2` was -5.86%.
The result for `Cc1cccc(NC(=O)c2cccc(S(=O)(=O)N3CCCCC3)c2)c1` reads -19.5%; that for `COCc1c(C(=O)NC(C)c2ccc(S(N)(=O)=O)cc2)oc2ccccc12` (stereo not drawn), 14.1%.
Consider `C/C(=N\NC(=O)c1ccc2ccccc2c1)c1cccnc1`, for which the “hERG current change (%, negative = inhibition) at 10uM” value is listed as 4.69%.
The result for `Cc1occc1-c1nnc(SCC(=O)Nc2nc(-c3ccccc3)cs2)o1` reads 11%.
The result for `O=C(O)c1c[nH]c2ccc(S(=O)(=O)N3CCOCC3)cc12` reads 17.7%.
The result for `O=C(NCc1ccccc1)c1ccc(F)c(S(=O)(=O)N2CCOCC2)c1` reads -17.4%; that for `C=CCOc1ccc2ccccc2c1CNc1ncn[nH]1`, -31.9%.
Take `Cc1ccc(Nc2nnc(-c3ccc4c(c3)OCO4)o2)c(C)c1`: the “hERG current change (%, negative = inhibition) at 10uM” value came out at 19.8%.
Regarding `COc1cccc(NC(=O)CSc2nnc(-c3ccco3)c(-c3ccco3)n2)c1`, the “hERG current change (%, negative = inhibition) at 10uM” value is listed as -59.6%.
The value for `COc1cccc(NC(=O)CSc2nc3c(oc4ccccc43)c(=O)[nH]2)c1` was 2.23%; that for `O=C(CSc1n[nH]c(-c2ccco2)n1)Nc1ccccc1F` was 15.3%; that for `CC(=O)Nc1ccc(C(=O)OCC(=O)NCc2cccs2)cc1` was 3.14%.
The result for `O=C(Nc1ccccc1F)C(=O)Nc1cccc2ccccc12` reads 1.62%; that for `CN(C(=O)CSc1nnc(-c2ccco2)n1Cc1ccccc1)C1CCS(=O)(=O)C1` (stereo not drawn), -6.24%; that for `O=C(COc1ccc(Br)cc1)N1CCN(Cc2ccc3c(c2)OCO3)CC1`, -53.9%.
The value for `Cc1nnc(NCc2ccccc2)c2ccccc12` was 2.49%; that for `Cc1ccc(C(=O)c2c3ccccc3[n+]([O-])n2CCC(=O)O)cc1` was 14.4%.
In the case of `COc1ccc(NC(=O)CN(C)S(=O)(=O)c2ccc(Cl)cc2)cc1Cl`, the “hERG current change (%, negative = inhibition) at 10uM” value was -3.05%.
The value for `CC(=O)Nc1cccc(-c2cn3ccc(C)cc3n2)c1` was 1.06%; that for `CCCCN(CC(=O)NCc1ccc(F)cc1)C(=O)c1ccco1` was 8.72%; that for `NNc1nc(NCc2ccccc2)nc(N2CCOCC2)n1` was -1.19%.
The value for `C=CCn1c2ccccc2c2nn(C)c(=S)nc21` was 10.2%.
The value for `CCCCC(c1nnnn1C(C)C)N1CCN(C(=O)c2ccco2)CC1.Cl` (stereo not drawn) was -18.9%.
